# PubChem BioAssay (Tox21)
# Several values for one entry are separate records, joined by “and”; a condition that tells them apart may be missing. Identical values can stand only once. The inconclusive results got no clear call from the source; some entries with a clear call stand among them for comparison. Where the call is inconclusive, the potency comes from a doubtful curve fit. Some compounds were tested as several samples or in several runs, with calls that do not always agree. Activity calls are given as the source filed them. Unless noted, calls come from the whole dose curve; as a rule, active = well fitted curve in the direction sought with a large enough effect in the repeat runs; inconclusive = weak or mixed curves; inactive = no such curve, though single readings can be large; an effect the other way counts as inactive or inconclusive.
# Tests used:
# [1] = target: Thyrotropin receptor (Homo sapiens) (UniProt P16473); test: qHTS assay to identify small molecule agonists of the thyroid stimulating hormone receptor (TSHR) signaling pathway (AID 1224843; calls by dose curve; note: nearly all actives have a fitted effect of over 45% in size; for activation: % is set by controls: 0 for no effect and ±100 for the full control effect); conditions: TSHR-HEK293 cells, cAMP HTRF, agonist mode, 30 min; activation: at 92.4 µM (top of the series) unless noted
# Outline: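 TSHR-HEK293 cells in agonist mode, 30 min room-temperature step, then cAMP measured by competitive HTRF (cAMP-d2 with anti-cAMP cryptate) after 1 h at room temperature. Tested at 15 concentrations in triplicate.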
# [2] = qHTS assay to identify small molecule agonists of the hypoxia (HIF-1) signaling pathway - cell viability counter screen (AID 1224844; calls by dose curve; note: nearly all actives have a fitted effect of over 50% in size)
# Outline: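 Luminescent ATP content (CellTiter-Glo, 30 min, room temperature) served as the viability measure in HRE-bla ME-180 cells exposed to compounds for 17 hrs in low-serum medium (0.5% dialyzed FBS).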
# [3] = qHTS RealTime-Glo MT Cell Viability Assay in HEK293 cells - 32 hour (AID 1224868); note: nearly all actives have a fitted effect of over 50% in size
# Outline: (§1)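 Quantitative high-throughput screen of the Tox21 10K library in HEK293: cells and RealTime-Glo reagents plated together, compound added at 5 h, luminescence monitored through 40 h at 37 C.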
# [4] = qHTS RealTime-Glo MT Cell Viability Assay in HEK293 cells - 16 hour (AID 1224872); note: nearly all actives have a fitted effect of over 50% in size
# Outline: as §1
# [5] = qHTS RealTime-Glo MT Cell Viability Assay in HEK293 cells - 40 hour (AID 1224874); conditions: RealTime-Glo luminescence; max response: stronger effect = lower value; note: nearly all actives have a fitted effect of over 50% in size; for max response: % is set by controls: 0 for no effect and ±100 for the full control effect
# Outline: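 qHTS format; HEK293 cells with NanoLuc/prosubstrate reagent, 37 C/5% CO2 for 5 h pre-dosing; compounds 23 nL in DMSO; luminescence at each time point reflects viable cells.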
# [6] = qHTS assay to identify small molecule antagonists of the estrogen related receptor (ERR) signaling pathway from Tox21 library (AID 1224848); note: nearly all actives have a fitted effect of over 50% in size
# Outline: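 ERR reporter cell line (from NTP) seeded 2,000 cells/well, rested 6 h at 37 C/5% CO2, then pin-dosed with compounds in DMSO. After 18 h at 37 C, ONE-Glo added; luminescence read after 30 min at room temperature.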
# [7] = A CellTox Green Cytotoxicity Assay to monitor cytotoxicity in HEK293 cells - 40 hour (AID 1224871); note: nearly all actives have a fitted effect of over 45% in size
# Outline: (§2)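 Each value comes from one timepoint of a single continuous run in which HEK293 cells with CellTox Green were exposed to compound for up to 40 h at 37 C, dye fluorescence rising with cell death.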
# [8] = qHTS assay to identify small molecule agonists of H2AX (AID 1224845; active = well fitted activation curve with a large enough effect in the signal ratio in the repeat runs, not every such curve was filed as active; inconclusive = weak or mixed curves; the % refers to the signal ratio; for activation (H2AX phosphorylation): % is set by controls: 0 for no effect and ±100 for the full control effect); conditions: CHO-K1 phospho-H2AX Ser139 HTRF, 3 h; activation (H2AX phosphorylation): at 154 µM (top of the series)
# Outline: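 Wild-type CHO-K1 cells, plated overnight, exposed 3hr at 37C to 15 concentrations (0.76% DMSO final). Lysed, then HTRF anti-pH2AX (S139) cryptate and anti-H2AX-d2 antibodies, 24 hr room temperature; 665/620 nm emission read.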
# [9] = qHTS RealTime-Glo MT Cell Viability Assay in HepG2 cells - 8 hour (AID 1224873); note: nearly all actives have a fitted effect of over 55% in size
# Outline: (§3)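 HepG2 cells (600/well) mixed with RealTime-Glo MT reagent, settled 5 h at 37 C/5% CO2 before compound addition. Nonlytic NanoLuc luminescence from viable-cell prosubstrate reduction read repeatedly during 40 h treatment at 37 C.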
# [10] = qHTS assay to identify small molecule agonists of H2AX - cell viability counter screen (AID 1224847; calls by dose curve; note: nearly all actives have a fitted effect of over 30% in size)
# Outline: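 Quantitative HTS viability measurement: CHO-K1 wild-type cells in serum (10% FBS) medium, short 3 hr drug exposure at 37C with 0.76% DMSO, CellTiter-Glo luminescent detection.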
# [11] = qHTS RealTime-Glo MT Cell Viability Assay in HepG2 cells - 24 hour (AID 1224867); note: nearly all actives have a fitted effect of over 50% in size
# Outline: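 Compound treatment began 5 h after plating HepG2 cells (600/well) with NanoLuc luciferase and prosubstrate. Plates stayed at 37 C for 40 h; luminescence was captured at six time points, 0 h through 40 h.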
# [12] = qHTS RealTime-Glo MT Cell Viability Assay in HepG2 cells - 40 hour (AID 1224870); note: nearly all actives have a fitted effect of over 50% in size
# Outline: as §3
# [13] = qHTS assay to identify small molecule agonists of the hypoxia (HIF-1) signaling pathway (AID 1224846; active = well fitted activation curve with a large enough effect in the signal ratio in the repeat runs, not every such curve was filed as active; inconclusive = weak or mixed curves; the % refers to the signal ratio; for activation: % is set by controls: 0 for no effect and ±100 for the full control effect); conditions: HRE-bla ME-180 cells, beta-lactamase ratio, 17 h; activation: at 76.8 µM (top of the series) unless noted
# Outline: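 Measured by blue/green FRET after loading CCF4-AM: beta-lactamase expressed from a hypoxia response element in ME-180 cells. Test agents were delivered in DMSO and left 17 hrs; cells had been plated 5 hrs earlier in low-serum (0.5% dialyzed FBS) medium.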
# [14] = A CellTox Green Cytotoxicity Assay to monitor cytotoxicity in HEK293 cells - 0 hour (AID 1224869); note: nearly all actives have a fitted effect of over 50% in size
# Outline: as §2
# Potency is the fitted concentration of half-maximal effect; tags give direction and shape of the fitted curve or compound fluorescence and quenching.
# Sequence of UniProt P16473 (P16473 whole entry, looked up): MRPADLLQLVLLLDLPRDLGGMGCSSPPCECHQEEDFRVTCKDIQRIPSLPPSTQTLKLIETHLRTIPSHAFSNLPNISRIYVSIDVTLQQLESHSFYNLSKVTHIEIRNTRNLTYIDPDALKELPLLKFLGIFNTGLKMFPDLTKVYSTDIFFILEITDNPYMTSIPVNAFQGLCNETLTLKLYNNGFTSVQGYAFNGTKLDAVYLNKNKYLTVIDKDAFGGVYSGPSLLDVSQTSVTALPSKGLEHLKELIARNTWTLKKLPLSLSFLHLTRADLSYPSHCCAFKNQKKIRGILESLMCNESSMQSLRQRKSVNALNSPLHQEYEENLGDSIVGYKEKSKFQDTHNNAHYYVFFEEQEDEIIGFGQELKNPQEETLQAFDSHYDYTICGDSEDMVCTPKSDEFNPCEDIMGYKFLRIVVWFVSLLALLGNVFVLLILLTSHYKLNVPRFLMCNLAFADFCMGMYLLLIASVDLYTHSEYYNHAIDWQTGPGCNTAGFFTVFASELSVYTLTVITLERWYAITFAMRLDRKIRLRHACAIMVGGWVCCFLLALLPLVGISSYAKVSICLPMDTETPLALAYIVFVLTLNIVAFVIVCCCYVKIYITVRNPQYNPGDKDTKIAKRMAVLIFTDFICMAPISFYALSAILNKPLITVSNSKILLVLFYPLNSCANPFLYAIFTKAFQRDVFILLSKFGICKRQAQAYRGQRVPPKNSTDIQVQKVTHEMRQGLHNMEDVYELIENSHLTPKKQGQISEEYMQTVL
compound,measurement,setting,value
CN1CCc2cc(Cl)c(O)cc2[C@H]2c3ccccc3CC[C@@H]21,Potency,[1],inactive
same,Potency,[2],"inconclusive: 21.3 µM [cytotoxic, partial curve]"
same,Potency,[3],"inconclusive: 16.9 µM [cytotoxic, partial curve]"
same,Potency,[4],"inconclusive: 4.77 µM [cytotoxic, full curve]"
same,Potency,[5],"inconclusive: 16.9 µM [cytotoxic, partial curve]"
c1ccc(C2CC2)c(OCC2=NCCN2)c1,Potency,[1],"inconclusive: 16.8 µM [activator, partial curve]"
same,Potency,[6],inactive
same,Potency,[7],inactive
same,max response,[5],inactive: 3.13%
O=[N+]([O-])c1cc(C(F)(F)F)c(Cl)c([N+](=O)[O-])c1Nc1ncc(C(F)(F)F)cc1Cl,Potency,[1],"inconclusive: 24.3 µM [inhibitor, full curve, poor fit]"
same,Potency,[2],active: 6.92 µM
same,Potency,[8],inconclusive: 35.7 µM
same,Potency,[4],active: 2.75 µM
same,Potency,[9],active: 24.5 µM
same,Potency,[5],active: 1.55 µM
O=C(CCl)CCl,activation,[1],inconclusive: 26.6%
same,Potency,[8],active: 104 µM
same,Potency,[10],"inconclusive: 28.4 µM [cytotoxic, partial curve]"
same,Potency,[11],"inconclusive: 45.3 µM [falling, partial curve, poor fit]"
same,Potency,[3],active: 18 µM and active: 19.5 µM
same,Potency,[12],"inconclusive: 57 µM [falling, single point]"
same,Potency,[7],"inconclusive: 22.7 µM [activator, single point] and active: 21.9 µM"
same,Potency,[4],"inconclusive: 18 µM [cytotoxic, full curve] and inconclusive: 15.5 µM [cytotoxic, full curve]"
C(=NC1CCCCC1)=NC1CCCCC1,Potency,[1],inactive
same,Potency,[8],"inconclusive: 113 µM [activator, single point]"
same,Potency,[6],"inconclusive: 10.9 µM [inhibitor, full curve, poor fit]"
same,Potency,[3],active: 22 µM and active: 21.9 µM
same,Potency,[12],active: 12.4 µM and active: 12.3 µM
same,Potency,[4],active: 19.6 µM and active: 19.5 µM
same,Potency,[9],"inconclusive: 17.5 µM [falling, partial curve] and inconclusive: 15.5 µM [falling, partial curve]"
O=S(=O)(Oc1ccc(Cl)cc1)c1ccc(Cl)cc1,Potency,[1],"inconclusive: 6.95 µM [inhibitor, full curve]"
same,Potency,[10],"inconclusive: 128 µM [cytotoxic, single point] and inconclusive: 71.3 µM [cytotoxic, partial curve]"
same,Potency,[6],"inconclusive: 98.2 µM [inhibitor, single point]"
same,Potency,[11],inactive
c1ccc2c(c1)-c1cccc3cccc-2c13,activation,[1],inconclusive: -33.9%
same,Potency,[8],inconclusive: 127 µM [activator]
same,Potency,[10],"inconclusive: 28.4 µM [cytotoxic, partial curve]"
same,Potency,[7],inactive and active: 43.6 µM
CCCCCCCCn1sccc1=O,Potency,[1],"inconclusive: 19.4 µM [inhibitor, partial curve, poor fit] and inconclusive: 28.6 µM [inhibitor, full curve]"
same,Potency,[8],"inconclusive: 10.1 µM [activator, full curve]"
same,Potency,[13],"inconclusive: 2.46 µM [falling, full curve] and inconclusive: 2.89 µM [falling, full curve]"
same,Potency,[10],active: 50.6 µM and active: 26.5 µM
same,Potency,[6],active: 17.3 µM and active: 9.05 µM
same,Potency,[14],"inconclusive: 61.8 µM [activator, partial curve, poor fit]"
CC(C)(C)CC(C)(C)c1ccc(O)cc1,Potency,[1],active: 6.86 µM and active: 13.3 µM
same,Potency,[2],active: 38.9 µM
same,Potency,[8],active: 89.8 µM
same,Potency,[3],inconclusive: 21.9 µM [cytotoxic]
same,Potency,[4],"active: 12.3 µM and inconclusive: 23.9 µM [cytotoxic, partial curve, poor fit]"
same,Potency,[5],inconclusive: 37.4 µM [cytotoxic]
CCOC(=O)C(C)OC(=O)c1cc(Oc2ccc(C(F)(F)F)cc2Cl)ccc1[N+](=O)[O-] (configuration not stated),activation,[1],inconclusive: -39.6% and inconclusive: -26.8%
same,Potency,[6],"inconclusive: 24.3 µM [inhibitor, partial curve]"
same,Potency,[3],"active: 30.7 µM and inconclusive: 54.9 µM [cytotoxic, partial curve, poor fit]"
same,Potency,[4],"inconclusive: 34.7 µM [cytotoxic, partial curve, poor fit]"
same,Potency,[9],"inconclusive: 43.4 µM [falling, partial curve, poor fit] and inconclusive: 49 µM [falling, partial curve, poor fit]"
same,Potency,[5],"inconclusive: 30.7 µM [cytotoxic, partial curve]"
CN=CNc1ccc(C)cc1C,activation,[1],inconclusive: 0.77%
same,Potency,[13],inactive
ClC1=C(Cl)C2(Cl)C(CBr)CC1(Cl)C2(Cl)Cl (configuration not stated),Potency,[1],active: 4.33 µM and active: 10.6 µM
same,Potency,[2],"inconclusive: 61.6 µM [cytotoxic, single point]"
same,Potency,[10],active: 113 µM
same,Potency,[11],"inconclusive: 54.9 µM [falling, single point]"
same,Potency,[3],active: 49 µM and inactive
same,Potency,[12],"inconclusive: 54.9 µM [falling, single point]"
same,Potency,[4],active: 43.6 µM
same,Potency,[9],"inconclusive: 54.9 µM [falling, single point]"
same,Potency,[5],"inconclusive: 49 µM [cytotoxic, partial curve]"
CCOP(=S)(OCC)Oc1nc(Cl)c(Cl)cc1Cl,Potency,[1],"inconclusive: 12.2 µM [inhibitor, full curve] and inconclusive: 13.7 µM [inhibitor, full curve]"
same,Potency,[10],active: 56.8 µM and inconclusive: 89.8 µM [cytotoxic]
same,Potency,[4],active: 21.9 µM
N#Cc1c(Cl)c(Cl)c(Cl)c(C#N)c1Cl,Potency,[1],active: 2.68 µM and active: 3.86 µM
same,Potency,[8],"inconclusive: 111 µM [fluorescent, partial curve] and inconclusive: 113 µM [fluorescent, partial curve]"
same,Potency,[10],"inconclusive: 3.57 µM [rising, full curve, poor fit]"
same,Potency,[7],active: 6.79 µM and active: 5.49 µM
same,Potency,[4],active: 3.4 µM and active: 1.55 µM
same,Potency,[9],active: 42.8 µM and active: 11 µM
CCC(C)(c1ccc(O)cc1)c1ccc(O)cc1,Potency,[1],"inconclusive: 68.5 µM [activator, single point]"
same,Potency,[10],"inconclusive: 127 µM [cytotoxic, single point]"
same,Potency,[6],"inconclusive: 54.4 µM [inhibitor, partial curve, poor fit]"
same,Potency,[3],"inconclusive: 43.6 µM [cytotoxic, partial curve] and inconclusive: 54.9 µM [cytotoxic, single point]"
same,Potency,[4],"inconclusive: 54.9 µM [cytotoxic, single point] and inconclusive: 49 µM [cytotoxic, single point]"
same,Potency,[5],active: 24.5 µM and active: 43.6 µM
O=S1OCC2C(CO1)C1(Cl)C(Cl)=C(Cl)C2(Cl)C1(Cl)Cl (configuration not stated),Potency,[1],active: 4.33 µM and active: 8.63 µM
same,Potency,[2],inconclusive: 55 µM [cytotoxic]
same,Potency,[13],inconclusive: 55 µM and inconclusive: 54.9 µM
same,Potency,[11],"inconclusive: 55 µM [falling, partial curve, poor fit]"
same,Potency,[3],active: 21.9 µM and active: 38.9 µM
same,Potency,[12],"inconclusive: 54.9 µM [falling, single point]"
same,Potency,[4],active: 19.5 µM and active: 38.9 µM
same,Potency,[9],inconclusive: 49 µM
CCc1nn(C)c(C(=O)NCc2ccc(C(C)(C)C)cc2)c1Cl,Potency,[1],"inconclusive: 5.45 µM [inhibitor, full curve]"
same,Potency,[2],inconclusive: 54.9 µM [cytotoxic]
same,Potency,[13],inconclusive: 54.9 µM [single point]
same,Potency,[10],active: 56.6 µM
same,Potency,[7],"inconclusive: 24.5 µM [activator, partial curve]"
same,Potency,[4],active: 0.0871 µM
CCCC[P+](CC)(CCCC)CCCC (tested in a mixture with another compound),Potency,[1],inactive
same,Potency,[8],inactive
same,Potency,[10],inactive
same,Potency,[3],"inconclusive: 34.9 µM [cytotoxic, partial curve]"
same,Potency,[12],inactive
same,Potency,[4],"inconclusive: 34.9 µM [cytotoxic, partial curve, poor fit]"
same,Potency,[5],"inconclusive: 39.2 µM [cytotoxic, partial curve]"
N#CC(Cl)Cl,Potency,[1],inactive
same,Potency,[2],"inconclusive: 53.5 µM [cytotoxic, single point]"
same,Potency,[13],"inconclusive: 26.8 µM [rising, partial curve]"
same,Potency,[6],"inconclusive: 53 µM [inhibitor, partial curve]"
same,Potency,[3],inconclusive: 21.3 µM
same,Potency,[12],"inconclusive: 26.8 µM [rising, partial curve, poor fit]"
same,Potency,[7],"inconclusive: 53.5 µM [activator, single point]"
same,Potency,[4],"inconclusive: 19 µM [rising, partial curve]"
same,Potency,[5],"inconclusive: 23.9 µM [rising, partial curve]"
